Data: article PMC6018503
These are yes or no findings as the source states them, for the method shown. For some of these results: In cells and extracts the contact can be indirect. Some results given as binding are weak or reduced against the parent protein; the word gives no strength.

Sequences of proteins named here, by UniProt entry; tags and fusion partners are left off.
UniProt Q9FXM3: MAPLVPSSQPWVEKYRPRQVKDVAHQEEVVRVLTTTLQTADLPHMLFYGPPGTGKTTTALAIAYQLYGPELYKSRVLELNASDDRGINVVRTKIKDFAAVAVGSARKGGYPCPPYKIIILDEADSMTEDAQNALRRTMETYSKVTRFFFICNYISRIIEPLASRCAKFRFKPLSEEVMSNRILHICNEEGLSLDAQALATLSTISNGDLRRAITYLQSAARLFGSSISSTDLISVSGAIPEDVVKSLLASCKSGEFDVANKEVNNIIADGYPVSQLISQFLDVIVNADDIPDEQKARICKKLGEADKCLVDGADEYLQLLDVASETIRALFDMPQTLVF
UniProt Q93ZX1: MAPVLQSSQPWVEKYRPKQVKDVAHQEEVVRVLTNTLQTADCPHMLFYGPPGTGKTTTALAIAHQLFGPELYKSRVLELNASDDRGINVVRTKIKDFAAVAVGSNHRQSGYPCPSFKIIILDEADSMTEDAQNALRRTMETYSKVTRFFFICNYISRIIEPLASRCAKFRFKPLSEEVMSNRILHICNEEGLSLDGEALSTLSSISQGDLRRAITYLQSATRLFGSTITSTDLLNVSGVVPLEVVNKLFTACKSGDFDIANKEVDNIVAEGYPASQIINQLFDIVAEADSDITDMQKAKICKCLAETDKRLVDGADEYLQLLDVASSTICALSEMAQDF

T1: OsRFC3 (rice (Oryza sativa)) (UniProt Q6YZ54)
T1 sequence: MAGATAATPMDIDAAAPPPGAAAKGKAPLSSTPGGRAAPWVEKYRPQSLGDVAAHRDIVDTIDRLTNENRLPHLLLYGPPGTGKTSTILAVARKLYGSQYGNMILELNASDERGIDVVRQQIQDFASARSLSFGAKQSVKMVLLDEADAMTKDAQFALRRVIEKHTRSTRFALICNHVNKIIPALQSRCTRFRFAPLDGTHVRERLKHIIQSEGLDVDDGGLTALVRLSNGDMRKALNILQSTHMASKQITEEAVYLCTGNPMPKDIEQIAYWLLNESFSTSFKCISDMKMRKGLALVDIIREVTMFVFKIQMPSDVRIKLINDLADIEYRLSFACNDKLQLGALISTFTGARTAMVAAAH

T2: OsRFC5 (rice (Oryza sativa)) (UniProt Q852K3)
T2 sequence: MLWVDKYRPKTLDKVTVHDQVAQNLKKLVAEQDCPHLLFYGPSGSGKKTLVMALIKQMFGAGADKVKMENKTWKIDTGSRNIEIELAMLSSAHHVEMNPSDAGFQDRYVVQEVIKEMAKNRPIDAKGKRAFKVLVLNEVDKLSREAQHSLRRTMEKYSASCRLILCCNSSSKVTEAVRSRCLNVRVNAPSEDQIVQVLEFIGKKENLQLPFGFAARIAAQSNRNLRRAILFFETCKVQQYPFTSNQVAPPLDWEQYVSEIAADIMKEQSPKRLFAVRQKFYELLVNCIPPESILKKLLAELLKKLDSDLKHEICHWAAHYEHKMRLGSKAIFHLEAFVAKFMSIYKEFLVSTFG

T3: OsRFC4 (rice (Oryza sativa)) (UniProt Q7XRX1)
T3 sequence: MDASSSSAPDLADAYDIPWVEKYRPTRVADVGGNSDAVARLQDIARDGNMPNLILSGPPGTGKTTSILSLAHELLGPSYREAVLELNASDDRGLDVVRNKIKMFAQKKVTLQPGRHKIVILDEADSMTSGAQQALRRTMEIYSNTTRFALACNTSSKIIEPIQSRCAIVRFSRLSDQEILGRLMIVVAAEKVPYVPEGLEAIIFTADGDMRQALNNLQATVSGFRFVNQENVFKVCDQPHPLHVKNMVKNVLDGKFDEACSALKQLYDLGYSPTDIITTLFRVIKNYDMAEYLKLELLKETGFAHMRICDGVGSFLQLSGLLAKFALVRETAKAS

T4: AtRFC2 (Arabidopsis thaliana) (UniProt Q9CAM7)
T4 sequence: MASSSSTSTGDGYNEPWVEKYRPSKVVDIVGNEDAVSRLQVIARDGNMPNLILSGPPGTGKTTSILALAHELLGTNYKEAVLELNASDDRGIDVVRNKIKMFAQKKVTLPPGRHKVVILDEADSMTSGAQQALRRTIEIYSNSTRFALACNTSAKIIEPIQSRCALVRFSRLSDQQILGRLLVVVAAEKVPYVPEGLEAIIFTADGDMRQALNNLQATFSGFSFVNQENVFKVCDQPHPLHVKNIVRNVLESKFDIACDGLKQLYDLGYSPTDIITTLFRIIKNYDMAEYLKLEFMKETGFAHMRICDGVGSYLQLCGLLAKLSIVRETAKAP

T5: AtRFC5 (Arabidopsis thaliana) (UniProt Q8VXX4)
T5 sequence: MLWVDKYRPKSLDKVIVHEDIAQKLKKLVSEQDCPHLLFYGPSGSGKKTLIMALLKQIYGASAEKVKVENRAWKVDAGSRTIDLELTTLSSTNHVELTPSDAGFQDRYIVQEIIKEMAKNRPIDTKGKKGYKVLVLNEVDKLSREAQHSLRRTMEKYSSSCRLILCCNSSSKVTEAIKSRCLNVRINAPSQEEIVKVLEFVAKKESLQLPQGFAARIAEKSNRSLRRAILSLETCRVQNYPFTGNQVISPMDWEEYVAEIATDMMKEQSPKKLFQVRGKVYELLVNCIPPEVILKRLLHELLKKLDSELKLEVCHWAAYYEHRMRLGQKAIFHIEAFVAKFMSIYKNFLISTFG

B1: OsRFC1 (protein, UniProt Q2R2B4 1-1021)
chain: MSSDIRKWFMKAQDKNGGAAKPAGTTALAKKPVLSIPEKPSAAPSMAACDQDCSARRKTSKYFASKTEKEEDTSAGKGTGRGLPKRKLQKVSDELEDDMKPLPAKEVHKEEEDDDDDDFVAPSKRKTPVKPPPSKKLKGASTAEAHGKTGLDDDNEDKMDEDAKTPSKASGSGRGRGRGRGRGGRGAGAAHGKTIGLDDDGEEDKMDEDAKTPSKAAGRGRGGASGGRGRGGGGRGFMNFGERKDPPHKGEKEVPEGAPDCLTGLTFVISGTLDSLEREEATDLIKRYGGRVTGSISKKTNYLLADEDVGGVKSNKAKELGVPFLTEDGLFDMIRKSKPAKATVAKHQSDKNSEKQQKSPMKSSPVKVERRDGNQITTGKNISPKSNKGSASIDNQKVNIVDRGSLQWTEKYRPKVPNDIVGNQSMVKQLHDWLRSWEDQFLHSGQKGKGKKQADSGAKKAVLLSGPPGIGKTTTAKVVSQMLGLQAIEVNASDSRGKADSKIEKGVGGSTSNSIKELISNATLNYSNNRLKRPKAVLVMDEVDGMSAGDRGGVADLIASIKMSKIPIICICNDRYSQKLKSLVNYCLLLNFRKPTKQQMGKRLMEIAKKEGLQAQENAMEELAERVHGDIRMALNHLQYMSLSQSVVKYDDIRQRLNSSTKDEDISPFTAVDKLFGFNGGRLRMDERIDLSMSDPDLVPLIIQENYINYRPITVGKDDSGVKRMNFLARAAESIADADIVNVQIRRYRQWQLSQAACLSSSIVPAALMHGNREILEAGERNFNRFGGWLGKYSTTNKNIRLLEDAHSHILASQQANLDRESLRLDYLTLLLRQLTDPLKTMPKDEAVQKVVEFMDTYSLSQEDFDTIVELSKFKGHPNPMDGIQPAVKSALTKAYKQGSSSRVVRAADLVNIPGMKKPLKKRVAAILEPVGESLPEENGVASSEGDEEDSSDAENNDELVPGDTKPKLDLQSDKKKGIQVQLDLKSNGNGLNSKKMPAGRSKASGSAGKAAGGSGGKRKR
B2: AtRFC1 (protein, UniProt Q9C587 1-956)
chain: MSDIRKWFMKAHEKGNGSAPKSTSSKAGPVKNAAETAPIKSEQASEDLETADRRKTSKYFGKDKTKVKDEKEVEAIPAKRKLKTESDDLVKPRPRKVTKVVDDDDDDFDVPISRKTRDTTPSKKLKSGSGRGIASKTVDNDDDDDGEDKETPLKSAGRGRGGRAAPGASTGGRGRGGGRGGFMNFGERKDPPHKGEKEVPEGTPDCLAGLTFVISGTLDSLEREEAEDLIKRHGGRITGSVSKKTTYLLCDEDIGGRKSEKAKELGTKFLTEDGLFDIIRSSKPVKKSLPERSNKGTEKICAPPKTSPQKEETRGKPLAKSSPKKVPPAKGKNKIIETSLPWTEKYRPKVPNEIVGNQSLVTQLHNWLSHWHDQFGGTGSKGKGKKLNDAGSKKAVLLSGTPGIGKTTSAKLVSQMLGFQAVEVNASDSRGKANSNIAKGIGGSNANSVKELVNNEAMAANFDRSKHPKTVLIMDEVDGMSAGDRGGVADLIASIKISKIPIICICNDRYSQKLKSLVNYCLPLNYRKPTKQQMAKRLMHIAKAEGLEINEIALEELAERVNGDIRLAVNQLQYMSLSMSVIKYDDIRQRLLSSAKDEDISPFTAVDKLFGYNGGKLRMDERIDLSMSDPDLVPLLIQENYLNYRPSGKDEAKRMDLLARAAESIADGDIINVQIRRYRQWQLSQSCCVASSILPASLLHGSREVLEQGERNFNRFGGWLGKNSTAGKNRRLMEDLHVHVLASRESSAGRETLRVDYLPLLLSRLTSPLQTLPKDEAVSEVVDFMNSYSISQEDFDTILELGKFKGRENPMEGVPPPVKAALTKKYNEMNKTRMVRVADMVQLPGVKKAPKKRIAAMLEPTVDSLRDEDGEPLADNEEGNGSDAEEDSEEATDGEKLESNLKNLNARGIQVELDLKGAGSSGSRKAAGKGRGRGKAADTSAEKKATGRGSGAKRKR

Assays:
[1] = target: OsRFC2 (rice (Oryza sativa)) (UniProt Q9FXM3); assay: two-hybrid; yeast two-hybrid; full-length ORFs in pGADT7 (AD) and pGBKT7 (BD); co-transformed strains spotted on SD-L-T and SD-L-T-H-A plates; empty AD or BD plasmids as negative controls
[2] = target: T1, OsRFC3 (rice (Oryza sativa)); assay: as above
[3] = target: T2, OsRFC5 (rice (Oryza sativa)); assay: as above
[4] = target: T3, OsRFC4 (rice (Oryza sativa)); assay: as above
[5] = target: AtRFC4 (Arabidopsis thaliana) (UniProt Q93ZX1); assay: split reporter; BiFC; YFP^N (aa 1-155) and YFP^C (aa 156-239) fusions (pCAMBIA-SPYNE, pCAMBIA-SPYCE) co-expressed in tobacco (Nicotiana benthamiana) leaf epidermal cells through Agrobacterium GV3101; confocal microscopy of YFP; only the two named fusions
[6] = target: T4, AtRFC2 (Arabidopsis thaliana); assay: as above
[7] = target: T5, AtRFC5 (Arabidopsis thaliana); assay: as above
[8] = target: AtRFC4 (Arabidopsis thaliana) (UniProt Q93ZX1); assay: two-hybrid; yeast two-hybrid; full-length ORFs in pGADT7 (AD) and pGBKT7 (BD); co-transformed strains spotted on SD-L-T and SD-L-T-H-A plates; empty AD or BD plasmids as negative controls
[9] = target: T4, AtRFC2 (Arabidopsis thaliana); assay: as above
[10] = target: T5, AtRFC5 (Arabidopsis thaliana); assay: as above

Binder | binding [1] | binding [2] | binding [3] | binding [4] | binding [5] | binding [6] | binding [7] | binding [8] | binding [9] | binding [10]
B1 | binds | binds | binds | binds | binds | binds | binds | – | – | –
B2 | – | – | – | – | – | – | – | no binding | no binding | no binding
